By IC50 is meant the dose at which the fit gives 50% viability; fits outside the tested doses are given as limits. For AUC the same curve is integrated over the 256-fold range of doses and scaled to a fraction; the more sensitive the line, the further below 1. For some assays here: An inferred top dose comes from the curve model; the source does not state it. For some assays here: Drugs with an entry number were screened twice under separate entries, and the two screens often disagree.
Assays:
Assay in all cases: Viability of human cancer cell lines after 72 h of drug (GDSC screen)
[1] = compound: CC(C)=CC[C@@H](O)C1=CC(=O)c2c(O)ccc(O)c2C1=O [Shikonin]; settings: top dose 16 µM; top dose inferred
Procedure: (§1)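 Human cancer cell lines in 384-well plates, medium with 10% serum, drug for 72 h over a 256-fold dose range (nine 2-fold or five 4-fold steps up to the top dose). Adherent lines were fixed and stained with the nucleic acid dye Syto60, suspension lines read with resazurin; signal relative to control wells, capped at 0 and 100%. One two-parameter sigmoid per drug and line, fitted in a mixed model over all curves with the slope shared within a line.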

[2] = compound: Cc1cc(N2CCOCC2)cc2[nH]c(-c3c(NC[C@@H](O)c4cccc(Cl)c4)cc[nH]c3=O)nc12 [BMS-536924]; settings: top dose 4 µM; screen: GDSC drug entry 1091; top dose inferred
Procedure: as §1

[3] = compound: Cc1cccc(-c2[nH]c(C(C)(C)C)nc2-c2ccc3nccnc3c2)n1 [SB-525334]; settings: top dose 20 µM; top dose inferred
Procedure: as §1

[4] = compound: O=C(c1cc(Cc2n[nH]c(=O)c3ccccc23)ccc1F)N1CCN(C(=O)C2CC2)CC1 [Olaparib]; settings: top dose 10 µM; screen: GDSC drug entry 1495
Procedure: as §1

Cell Line	AUC [1]	IC50 [1] [µM]	AUC [2]	IC50 [2] [µM]	AUC [3]	IC50 [3] [µM]	AUC [4]	IC50 [4] [µM]
769-P (kidney, adherent)	0.429	0.626	0.981	> 4	0.872	> 20	0.854	9.01
A204 (rhabdomyosarcoma, adherent)	0.235	0.132	0.896	> 4	0.892	> 20	0.794	6.21
BEN (non-small cell lung carcinoma, adherent)	0.528	1.21	0.969	> 4	0.932	> 20	0.982	> 10
BFTC-909 (kidney, adherent)	0.55	1.37	0.978	> 4	0.988	> 20	0.867	8.66
BICR31 (head and neck, adherent)	0.288	0.25			0.985	> 20		
CAMA-1 (breast, adherent)	0.563	1.55	0.962	> 4	0.932	> 20	0.942	> 10
COLO-792 (melanoma, adherent)	0.876	15.5	0.885	> 4	0.98	> 20	0.986	> 10
COR-L32 (small cell lung carcinoma, suspension)			0.677	1.33			0.957	> 10
COR-L105 (lung adenocarcinoma, adherent)	0.324	0.286	0.884	> 4	0.641	3.35	0.91	> 10
COR-L303 (small cell lung carcinoma, suspension)					0.904	> 20		
COR-L311 (small cell lung carcinoma, suspension)					0.97	> 20		
Caov-3 (ovary, adherent)	0.492	0.952			0.911	> 20		
GCT (soft tissue, adherent)	0.528	1.18	0.988	> 4	0.989	> 20	0.674	1.84
H2818 (mesothelioma, adherent)	0.698	3.68	0.973	> 4	0.989	> 20	0.961	> 10
HO-1-N-1 (head and neck, adherent)	0.353	0.406	0.926	> 4	0.983	> 20	0.903	> 10
HPAC (pancreas, adherent)	0.516	1.12	0.901	> 4	0.965	> 20		
HPAF-II (pancreas, adherent)	0.525	1.19	0.743	1.58	0.866	> 20	0.867	> 10
HSC-3 (head and neck, adherent)	0.322	0.347	0.953	> 4	0.99	> 20	0.894	9.02
HTC-C3 (thyroid, adherent)	0.409		0.883	> 4	0.818	13	0.914	> 10
J82 (bladder, adherent)	0.249	0.19	0.951	> 4	0.988	> 20	0.934	> 10
KOSC-2 (head and neck, adherent)	0.575	1.62	0.922	> 4	0.984	> 20	0.863	9.25
KP-4 (pancreas, adherent)	0.33	0.343	0.987	> 4	0.972	> 20	0.937	> 10
KYSE-180 (oesophagus, adherent)	0.492	0.952	0.916	> 4	0.889	> 20	0.932	> 10
NCI-H1650 (lung adenocarcinoma, adherent)			0.883	> 4				
NCI-H2228 (lung adenocarcinoma, adherent)	0.531	1.27	0.74	1.78	0.963	> 20		
SNU-175 (large intestine, suspension)					0.937	> 20		
SNU-475 (liver, adherent)	0.844	9.52			0.973	> 20		
SNU-1040 (large intestine, adherent)			0.977	> 4	0.941	> 20	0.972	> 10
SW1116 (large intestine, adherent)			0.916	> 4	0.982	> 20	0.979	> 10
YMB-1-E (breast, adherent)					0.936	> 20		

— the supplement of paper PMC4967469
